According to paper PMC4336329 (PLoS ONE, 2015):
The campaign covered roughly 310,000 compounds. About 14,000 (4.5%) showed an effect of 50% or more. The effect is printed as a negative number. Some of the results follow.

Each compound was assayed against human ether-à-go-go-related gene (hERG) potassium channel (human, UniProt Q12809) (assay: primary screen, population patch clamp on CHO cells stably expressing hERG).
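Note: peak tail current of the secondary pulse compared with the same well before compound.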

Chain of human ether-à-go-go-related gene (hERG) potassium channel (Q12809 whole entry, looked up): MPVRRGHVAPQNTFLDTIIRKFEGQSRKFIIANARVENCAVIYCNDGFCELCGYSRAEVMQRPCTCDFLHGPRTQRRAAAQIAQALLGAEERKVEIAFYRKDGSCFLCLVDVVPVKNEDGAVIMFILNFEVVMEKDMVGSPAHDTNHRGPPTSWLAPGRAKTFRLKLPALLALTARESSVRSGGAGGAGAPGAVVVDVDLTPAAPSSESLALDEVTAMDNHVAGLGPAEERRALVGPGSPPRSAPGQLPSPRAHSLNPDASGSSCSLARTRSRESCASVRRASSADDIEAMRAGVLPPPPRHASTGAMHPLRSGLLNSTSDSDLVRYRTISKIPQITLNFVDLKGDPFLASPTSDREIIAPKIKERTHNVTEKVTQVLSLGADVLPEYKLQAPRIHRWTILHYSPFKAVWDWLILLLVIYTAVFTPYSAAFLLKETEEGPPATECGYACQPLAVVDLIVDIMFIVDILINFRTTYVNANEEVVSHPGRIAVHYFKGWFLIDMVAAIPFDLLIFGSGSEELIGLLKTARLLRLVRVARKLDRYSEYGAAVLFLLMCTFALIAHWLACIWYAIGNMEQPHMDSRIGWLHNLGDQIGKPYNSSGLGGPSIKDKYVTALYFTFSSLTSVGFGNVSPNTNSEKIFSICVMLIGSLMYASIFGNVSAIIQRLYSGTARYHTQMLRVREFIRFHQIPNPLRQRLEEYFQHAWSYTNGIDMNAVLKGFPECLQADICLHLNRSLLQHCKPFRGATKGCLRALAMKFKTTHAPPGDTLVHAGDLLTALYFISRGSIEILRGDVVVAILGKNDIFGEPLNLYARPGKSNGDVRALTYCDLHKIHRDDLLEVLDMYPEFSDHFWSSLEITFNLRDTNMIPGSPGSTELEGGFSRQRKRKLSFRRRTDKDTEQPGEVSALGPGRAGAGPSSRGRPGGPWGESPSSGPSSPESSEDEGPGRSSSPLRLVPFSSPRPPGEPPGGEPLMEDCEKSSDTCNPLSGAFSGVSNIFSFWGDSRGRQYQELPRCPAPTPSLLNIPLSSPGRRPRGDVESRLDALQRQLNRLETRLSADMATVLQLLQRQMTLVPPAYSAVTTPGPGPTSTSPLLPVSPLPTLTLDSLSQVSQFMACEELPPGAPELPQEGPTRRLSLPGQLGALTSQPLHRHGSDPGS

SMILES | hERG current change (%, negative = inhibition) at 10uM [%]
Cc1ccc(NC(=O)CCSc2nnnn2-c2ccc3c(c2)OCO3)cc1C | -16.3
CCc1nc2sc3c(O)cc(=O)[nH]c3c2cc1C | 12
CC1(C)CC(=O)C/C(=N/Nc2nc3ccccc3s2)C1 | 15.2
Cc1cc(C)c(NC(=O)CCn2nnc3ccccc32)c(C)c1 | 22
Cc1ccc(CN(c2ccc(C(=O)Nc3ccc4c(c3)OCO4)cc2)S(C)(=O)=O)cc1 | 10.6
O=C(CCN1C(=O)/C(=C/c2cccs2)SC1=S)NC1=NCCS1 | 12.2
COc1ccc(/C=C(\C#N)C(=O)OCCNC(=O)c2ccncc2)cc1 | 0.758
O=C(CCC1COc2ccccc2O1)Nc1ccccn1 (stereo not shown) | -6.45
Cc1ccc(C(=O)NCCc2nnc3ccc(SCC(=O)N4CCCCC4)nn23)cc1 | 4.02
COc1ccc(-c2ccnc(SCC(=O)N3CCN(c4ccccc4)CC3)n2)cc1 | 15.3
O=C(NC(=S)Nc1ccc(F)cc1)c1ccc2c(c1)OCCO2 | -1.46
COc1ccc(CCNC(=O)c2ccc(CN3CCC(Cc4ccccc4)CC3)cc2)cc1OC | -67.9
CCC1(CC)C(=O)N(C)C(=O)NC1=Nc1ccccc1 | 15.8
CC(Oc1ccc(Cl)cc1Cl)C(=O)NNC(=O)c1cccnc1 (stereo not shown) | -15.4
O=C(CN1CCN(S(=O)(=O)c2ccccc2)CC1)Nc1cccc(C(F)(F)F)c1 | -56.2
O=C(c1cc(S(=O)(=O)N2CCOCC2)c(Cl)cc1Cl)N1CCCCC1CO (stereo not shown) | 9.85
COc1ccc(S(=O)(=O)N2CCCN(S(=O)(=O)c3ccc(OC)cc3C)CC2)c(C)c1 | 7.74
Cc1ccc(CS(=O)(=O)Cc2ccc(C(=O)NCc3ccccn3)o2)cc1 | -5.95
COC(=O)C1=C(C)N=c2s/c(=C/c3cccs3)c(=O)n2C1c1ccc(F)cc1 (stereo not shown) | 0.786
COC(=O)c1ccc(N2CCC(C)CC2)c(N)c1 | 0.238
C/C(=N\N1CCCCCC1)c1c(O)n(C2CCCCC2)c(=O)[nH]c1=O | -9.93
CC(=O)Nc1ccccc1NC(=O)COc1cccc2ccccc12 | 18.9

SMILES | hERG current change (%, negative = inhibition) at 10uM [%]
COc1cc(C(=O)CSc2nnc(-c3ccc(O)cc3)n2CC2CCCO2)ccc1NC(C)=O (stereo not shown) | 5.16
Cc1nc2ccccc2c(=O)n1-c1ccc(F)c(NS(=O)(=O)c2ccccc2F)c1 | 19.2
c1ccc2[nH]c(NCc3ccc4c(c3)OCO4)nc2c1 | -4.7
CCSc1ccc([C@@H]2[C@H]3C(=O)N(CC)C(=O)[C@H]3[C@]3(C(=O)OC)CCCCN23)cc1.O=C(O)C(F)(F)F | -19.1
CC(c1nnc(SCC(=O)N2CCc3ccccc32)n1-c1ccc(Cl)cc1)N(C)C (stereo not shown) | -12.6
C=CCn1cc(C(=O)NCCCOC)c(=O)c2cc(S(=O)(=O)N(CC)CC)ccc21 | -30.5
CCc1cccc(C)c1NC(=O)CN(C)Cc1ccccc1F.O=C(O)C(=O)O | -23.8
COC(=O)c1ccc(S(=O)(=O)c2ccc([N+](=O)[O-])cc2)cc1 | -3.9
O=C(N=C1SC2CS(=O)(=O)CC2N1c1cc(Cl)ccc1Cl)C1CC1 (stereo not shown) | -4.65
Cc1nn2c(N)c(C#N)cnc2c1-c1ccccc1 | -5.95
Cn1nccc1C(=O)NCCN1C(=O)OC(C)(C)C1(C)O (stereo not shown) | -0.944
COc1ccc(C(=O)Nc2ccccc2C(N)=O)cc1 | -18.9
O=C(NC1CCN(S(=O)(=O)c2ccc(F)cc2)CC1)c1cccnc1 | -10.5
CC(C1CC2CCC1C2)N1CC(O)=C(c2nc3ccccc3[nH]2)C1=N (stereo not shown) | -17.9
Cc1ccc(C(=O)COC(=O)c2cc(=O)[nH]c3ccccc23)cc1 | 13.3
Cc1cccc(OCC(=O)OC(C)C(=O)Nc2ccc(S(=O)(=O)N3CCCCC3)cc2)c1 (stereo not shown) | 8.69
CN(C)c1nc2n(c(=O)n1)CCO2 | 20.3
COc1ccc(C(C(=O)NCc2ccccc2)N(C(=O)c2snc(C(N)=O)c2N)c2ccccc2OC)cc1OC (stereo not shown) | -24.9
Fc1ccc(-c2cc(-c3nnc4n3CCCCC4)c3ccccc3n2)cc1 | -63.5
CCCCN(CCCC)C(=O)c1cc(Cl)ccc1[N+](=O)[O-] | -1.4
CSc1ncc(Cl)c(C(=O)O)n1 | 15.8
Cc1cc(C)c(C)c(OCCCn2ccnc2)c1 | -5.23

SMILES | hERG current change (%, negative = inhibition) at 10uM [%]
COc1ccc(S(=O)(=O)N2CCN(C)CC2)cc1C(=O)Nc1ccccc1 | 1.79
CCOc1ccc(-n2c(N)c(C(=O)NCc3cccnc3)sc2=S)cc1 | 12.4
Cc1cc(O)ccc1Nc1nc2ccccc2nc1Nc1ccc(O)cc1C | 3.68
Cc1ccc(/C=N/NC(=O)c2cccs2)o1 | 8.42
O=C(CSc1nc(O)c(Cc2ccccc2)c(=O)[nH]1)N1CCOCC1 | 2.94
Cc1nc2ccccc2c(=O)n1NC(=O)Cc1ccc([N+](=O)[O-])cc1 | -30.6
Cc1ccc(N=Nc2ccc(O)cc2)c(Br)c1 | 16.4
COc1cccc(NC(=O)C2CCN(S(=O)(=O)c3ccc4c(c3)NC(=O)C(C)S4)CC2)c1 (stereo not shown) | 16.5
COc1ccc(C(=O)NCC(=O)OCc2ccc(F)cc2)cc1 | -18.8
CSc1nc(-c2ccccc2)nn1S(=O)(=O)c1ccc(Cl)cc1 | 14.8
O=C(c1cccc(Br)c1)c1cn(-c2ccccc2)nc1C(=O)c1ccccc1 | 5.57
COc1ccc2nc(NC(=O)c3ccc(-n4nc(C)cc4C)cc3)sc2c1 | 21
O=S(=O)(NCc1ccccn1)c1ccc(Cl)c(C(F)(F)F)c1 | 12.5
O=C(c1ccc(=O)[nH]c1)N1CCN(S(=O)(=O)c2ccc(Cl)cc2)CC1 | 15
CCN(Cc1ccccc1)S(=O)(=O)c1ccc(C(=O)Nc2nnc(C3CC3)o2)cc1 | -36.7
CCN(CC)S(=O)(=O)c1ccc(N2CCCC2)c(NS(=O)(=O)c2ccc(F)cc2)c1 | -16.2
CN1C(=O)[C@@H]2[C@H](C1=O)[C@@H]1C(=O)Nc3ccccc3C(=O)N1[C@@H]2c1cccc(Br)c1 | -30
CSc1n[nH]c(NCc2ccc(Cl)cc2)n1 | 6.04
Cc1ccc(-n2nnnc2SCC(=O)NC2CCCc3ccccc32)cc1 (stereo not shown) | -23.8
CCN1C(=O)C2C(c3ccc(O)c(OC)c3)NC(C)(C(=O)OC)C2C1=O (stereo not shown) | 12.1
COCCNC(=O)C(NC(=O)C1CCC(C)CC1)C(C)C (stereo not shown) | 3.79
COc1ccc(NC(=O)C2CC(c3ccc(OC)c(OC)c3)=NO2)cc1OC (stereo not shown) | -6.91

SMILES | hERG current change (%, negative = inhibition) at 10uM [%]
Cc1cc(=O)[nH]c(Nc2ccc(C(=O)OC(C)C)cc2)n1 | 8.63
O=C(COC(=O)CCC(=O)c1ccc(Cl)cc1)NC1CC1 | 7.93
CC(C)(C)n1nnnc1CN1CCN(C2CCCC2)CC1 | 2.52
COC(=O)c1ccc2ccccc2c1OC1OC(CO)C(O)C(O)C1NC(C)=O (stereo not shown) | 13.8
CCCc1ccc(OCc2ccc(C(=O)N3CCN(c4ccccn4)CC3)o2)c(OC)c1 | -56.5
O=C(NN1CCCCC1)c1cnn2c(C(F)F)cc(-c3ccccc3)nc12 | -2.14
Cc1cccc(CCNC(=O)CCNC(=O)Cn2ccc3ccccc3c2=O)c1 | 8.39
O=C(COC(=O)c1ccc[nH]c1=O)NCC12CC3CC(CC(C3)C1)C2 | 13.4
Cc1ccc(CNC(=O)C2CCCN(c3nc4ccccc4o3)C2)cc1 (stereo not shown) | -1.06
CC(=O)Nc1sc2c(c1CN1CCCC1)CCCC2 | 7.34
CCOC(=O)C1(CCCc2ccccc2)CCN(C(=O)CCc2cnccn2)CC1 | -66.4
Cc1nc(-c2ccccc2)cc(N2CCCC2)n1 | -16.7
COCCCNC(=S)Nc1cccc2ncccc12 | 15.9
COc1ccccc1OCCCCOc1ccccc1C(C)=O | -6.16
Cc1ccc(NC(=O)Nc2nnc(-c3ccncc3)s2)cc1 | 1.21
CCOC(=O)c1c(NC(=O)CSc2nnnn2-c2ccccc2OCC)sc2c1CC(C)(C)NC2(C)C | -71.2
COc1ccc(-c2nc(CS(=O)(=O)CC(=O)NCCc3cc(OC)ccc3OC)c(C)o2)cc1 | -16.1
CCc1cccc(C)c1NC(=S)NCC(c1cccnc1)N1CCOCC1 (stereo not shown) | -14.3
CC1(C)Cc2c(C#N)c(NCc3ccco3)nc(-c3ccco3)c2CO1 | -8.94
CC1=CC(C)(C)NC(=S)N1c1cc(C)cc(C)c1 | 10.5
CC(C)CCN1CC(=O)N2Cc3[nH]c4ccccc4c3C[C@H]2C1=O | 15.8
COc1ccc(C(=O)Oc2cccc3cccnc23)cc1[N+](=O)[O-] | 5.68
